# Measured values published in PubChem BioAssay AID927 (National Center for Advancing Translational Sciences (NCATS), 2007).
# Several values for one entry are separate records, joined by “and”; a condition that tells them apart may be missing. Equal entries are not always repeated. In all, about 60,000 compounds went through this assay and about 65 (0.1%) were called active. This list was built around the results that the source calls inconclusive (neither active nor inactive); the mix of calls is not that of the screen. The call rests on the fitted dose curve; in most records, active means well fitted inhibition curve with a large enough effect; inconclusive means small, poorly fitted or top-dose-only effect; inactive means no such curve, though single readings can be large or run the other way. Potencies of inconclusive entries are doubtful fits and often do not repeat. Some compounds were tested as several samples or in several runs, with calls that do not always agree.
# Molecular target: Ubiquitin carboxyl-terminal hydrolase 2 (Homo sapiens) (UniProt O75604)
# UniProt O75604, sequence (O75604 whole entry, looked up): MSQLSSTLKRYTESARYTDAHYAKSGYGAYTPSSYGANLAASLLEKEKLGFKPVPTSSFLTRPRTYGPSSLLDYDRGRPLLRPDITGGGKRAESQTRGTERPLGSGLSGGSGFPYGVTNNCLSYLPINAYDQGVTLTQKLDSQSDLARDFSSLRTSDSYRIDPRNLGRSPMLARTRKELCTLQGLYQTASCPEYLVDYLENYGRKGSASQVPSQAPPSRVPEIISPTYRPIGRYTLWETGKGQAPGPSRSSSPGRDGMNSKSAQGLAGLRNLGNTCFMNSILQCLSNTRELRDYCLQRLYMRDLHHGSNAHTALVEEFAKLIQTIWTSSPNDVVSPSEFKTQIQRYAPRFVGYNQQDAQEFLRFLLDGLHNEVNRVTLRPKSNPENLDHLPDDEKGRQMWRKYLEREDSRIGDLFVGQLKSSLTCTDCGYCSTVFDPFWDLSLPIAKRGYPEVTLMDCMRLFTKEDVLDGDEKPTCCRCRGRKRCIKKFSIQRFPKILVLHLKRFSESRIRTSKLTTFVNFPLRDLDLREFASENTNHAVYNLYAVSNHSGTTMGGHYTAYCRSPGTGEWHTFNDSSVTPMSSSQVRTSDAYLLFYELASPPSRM
# Experiment: qHTS Assay for Inhibitors of Ubiquitin-specific Protease USP2a; further: nearly all actives have a fitted effect of over 60% in size
# Details: USP2a enzymatic assay; Potency: qHTS inhibition; activity change, negative = inhibition: at 38.3 µM (top of the series)
# Source text: NIH Molecular Libraries Screening Centers Network [MLSCN]
# NIH Chemical Genomics Center [NCGC]
# PI Name: Nicholson, Ben. Progenra Inc, Malvern, PA
# Homeostasis of cellular proteins is maintained through a combination of synthesis and degradation. The pathway that accounts for the majority of protein degradation is the ubiquitin-proteasomal pathway. Ubiquitin (Ub) is highly conserved in all cells and the generation of a multi-Ub chain typically targets proteins for degradation by the proteasome. However, ubiquitination is highly reversible and dynamic. Deubiquitination, the reverse process, is catalyzed through the action of enzymes referred to as isopeptidases or deubiquitinating enzymes (DUBs). This group of enzymes is collectively responsible for maintaining adequate pools of free ubiquitin and regulating the ubiquitination status of cellular proteins. The class of DUBs referred to as the ubiquitin-specific proteases (USP) family functions endoproteolytically to cleave Ub chains from a wide range of protein substrates. USP2a deubiquitinates fatty acid synthase (FASN) which has recently been identified as an emerging oncology target. To identify inhibitors of USP2a a cell-free assay was employed.
# The reporter enzyme chosen is phospholipase A2 (PLA2), which has an absolute requirement for a free amino terminus. Thus, fusion of a UBL to the N-terminus of PLA2 inactivates PLA2. When the UBL-PLA2 reporter enzyme is cleaved by USP2, the activated reporter can subsequently act on its substrate, which is the commercially available NBD C6-HPC (Invitrogen). Thus, this coupled assay gives a fluorescent read-out, which is generated through the cleavage of the PLA2 reporter enzyme. The assay, developed by Progenra, Inc. uses Ub-PLA2 and USP2a at near equal and low (nM) amounts and has been licensed for sale by LifeSensors, Inc. as the Ub-IsoPro1 kit.
# NCGC Assay Protocol Summary:
# The assay buffer, prepared fresh at the day of the assay, contains 20mM Tris-HCl pH 8.0, 2mM CaCl2, 2mM beta-Mercaptoethanol, 0.1% DMSO. 3ul of 40nM (20nM final) USP2 core, which is stored on ice, is dispensed into a medium-binding black solid Kalypsys 1,536 well plate using the Kalypsys dispenser. The assay plate is then pinned with 23nL compound with the Kalypsys pintool in columns 5-48. The controls are pinned as follows: column 1&2 two-fold dilutions of 2M NEM in duplicate; column 3 DMSO; column 4 2M NEM (final concentration 38.2mM). The assay plate is incubated at RT for 30min. Subsequently, 3uL of 40nM (20nM final) Ub-PLA2 and 40uM (20uM final) NBD C6-HPC (stored on ice and protected from light) were dispensed into the plate using the Kalypsys dispenser. Plates were read immediately (0 Hour) on an Envision (Perkin Elmer) plate reader using the following wavelengths Ex 460nm /Em 535nm. Then, the assay plates were incubated for 2.5 hours and read again on the Envision using the same settings
# Data were normalized to the to AC100 inhibition (NEM). Concentration-response curves were fitted to the normalized data and the concentration-response curves were then classified based on curve quality (r2), response magnitude and degree of measured activity. The time zero reading was used to flag fluorescence artifacts.
# Keywords: ubiquitination, deubiquitination, proteases, profluorescent, MLSMR, MLSCN, NIH Roadmap, qHTS, NCGC
# Potency means the concentration at half of the fitted maximal effect; tags describe the fitted curve by direction and shape.
SMILES,"activity change, negative = inhibition",Potency
Cc1noc(C)c1C(=O)N1CCC2(CCCN(C(=O)Nc3ccccc3)C2)CC1,inactive: -3.23%,
CCCc1ccc(Oc2cn[nH]c2-c2ccc(O)c(C)c2O)cc1,,"inconclusive: 25.1 µM [inhibitor, single point]"
O=C(O)C1CCN(c2nc(-c3ccccc3)nc3c2oc2ccccc23)CC1,inactive: 6.06%,
CCOc1cc(C2C(C#N)=C(N)Oc3n[nH]c(-c4ccccc4)c32)ccc1O (centres undefined),,"inconclusive: 25.1 µM [inhibitor, single point]"
CCOC(=O)Nc1nnc(-c2cccc(OC)c2)s1,,"inconclusive: 12.6 µM [inhibitor, partial curve]"
Cc1ccc(-c2cc(-c3ccccc3Cl)[nH]n2)c(O)c1,,"inconclusive: 25.1 µM [inhibitor, single point]"
CC/C(=C(/CC)c1ccc(O)cc1)c1ccc(O)cc1,,"inconclusive: 25.1 µM [inhibitor, single point]"
CCc1ccccc1N1CCN(S(=O)(=O)c2cc(OC)ccc2OC)CC1,,"inconclusive: 10 µM [inhibitor, partial curve]"
C=C(C)COc1ccc(-c2[nH]ncc2Oc2ccccc2OCC)c(O)c1,,"inconclusive: 20 µM [inhibitor, single point]"
Cc1nn(-c2cccc(Cl)c2)c2c1C(c1cccnc1)C(C#N)=C(N)O2 (centres undefined),,"inconclusive: 1 µM [inhibitor, partial curve]"
CC(=O)Nc1ccc(S(=O)(=O)N2CCN(c3nc(NC4CCCC4)c4ccccc4n3)CC2)cc1,inactive: 20% [at 7.66 µM],
COc1ccc(-n2c(NC(=O)c3ccco3)c(C#N)c3nc4ccccc4nc32)cc1,,"inconclusive: 12.6 µM [inhibitor, partial curve]"
CC1(C)C=CC(=O)[C@]2(C)C1CC(=O)[C@]1(C)C2CC[C@@]2(C)C(c3ccoc3)OC(=O)C3OC321 (some centres undefined),inactive: 44.8%,
c1coc(-c2nnc(SCc3cn4ccccc4n3)o2)c1,inactive: 6.55%,
COC(=O)Nc1c(C(=O)OC)cc(OC)c(OC)c1OC,,"inconclusive: 3.98 µM [inhibitor, single point]"
COc1cccc(-n2c(COc3ccc(C)cc3)nnc2SCC(=O)O)c1,,"inconclusive: 12.6 µM [inhibitor, single point]"
CCN(CCO)CCCC(C)Nc1ccnc2cc(Cl)ccc12 (centres undefined),inactive: -12.5%,
Cc1ccccc1OCC(=O)Nc1ccccc1N1CCCCC1,,"inconclusive: 12.6 µM [inhibitor, single point]"
CCNc1ncc2nc(C)c(=O)n(-c3ccc(OC)cc3)c2n1,,"inconclusive: 10 µM [inhibitor, single point]"
C1CCN(c2nc(N3CCCCC3)nc(N3CCNCC3)n2)CC1,,"inconclusive: 3.98 µM [inhibitor, partial curve]"
CN(C)CCCNC(=O)CCC1CCCCC1,inactive: 1.37%,
Cc1ccc(CNC(=O)c2cn(C3CCCC3)c(=O)c3c2c2ccccc2n3C)o1,inactive: 29.7%,
COc1cccc(-c2ccc3ncnc(NCCc4c[nH]c5ccc(OC)cc45)c3c2)c1,,"inconclusive: 20 µM [inhibitor, single point]"
CN(C)c1ccc(C(=C2C=CC(=[N+](C)C)C=C2)c2ccc(N(C)C)cc2)cc1,,active: 10 µM
O=C(Nc1cn(-c2ccccc2)nc1-c1cccs1)c1ccco1,inactive: 25.9%,

SMILES,"activity change, negative = inhibition",Potency
CN1CCN(c2ncc3nc(-c4ccc(F)cc4)c(=O)n(C4CC4)c3n2)CC1,,active: 10 µM
O=c1[nH]c2ccccc2nc1-c1cccs1,inactive: -1.36%,
OCC(O)C(O)[C@H](O[C@H]1OC(CO)C(O)C(O)C1O)[C@H](O)CO (some centres undefined),inactive: -10.6%,
CC(=O)NCCNc1cc(-c2ccccc2C)ncn1,inactive: 8.22%,
Cc1cc(-c2ccccc2C(=O)O)on1,,"inconclusive: 25.1 µM [inhibitor, single point]"
CCn1c2ccccc2c2nnc(SCc3ccc(C(=O)OC)o3)nc21,inactive: 21.5%,
Cc1c[n+]([O-])n(-c2ccc(C(=O)O)cc2)n1,,"inconclusive: 10 µM [inhibitor, partial curve]"
Cc1ccc2[nH]c(=O)c(CN(CCCN3CCOCC3)Cc3nnnn3C3CCCC3)cc2c1,,"inconclusive: 3.98 µM [inhibitor, single point]"
COc1ccc(Br)cc1/C=c1\sc2nc(-c3ccco3)nn2c1=O,,"inconclusive: 25.1 µM [inhibitor, single point]"
COc1ccc(CCN2C(=O)c3[nH]nc(-c4ccccc4O)c3C2c2ccc(C)cc2)cc1OC (centres undefined),,"inconclusive: 25.1 µM [inhibitor, single point]"
Cc1ccc(-n2nc3c([n+]2[O-])CCc2c-3no[n+]2[O-])cc1,,active: 2 µM
NCCC[C@@](N)(C(=O)O)C(F)F,inactive: 0.365%,
Cc1oc(-c2ccc(Cl)cc2)cc1-c1nn2c(-c3ccoc3C)nnc2s1,,"inconclusive: 31.6 µM [inhibitor, single point]"
CCCCCCCCCCCC(CC1OC(=O)C1CCCCCC)OC(=O)C(CC(C)C)NC=O (centres undefined),,active: 10 µM
CCCOc1ccccc1-c1nc2n[nH]nc2c(=O)[nH]1,,active: 10 µM and active: 1.58 µM
CCN(CC)S(=O)(=O)c1ccc2c(c1)c(=O)c(C(=O)N1CCOCC1)cn2C,,"inconclusive: 0.794 µM [inhibitor, full curve]"
CCn1nc(C(=O)OCC(=O)c2c[nH]c3ccccc23)c2ccccc2c1=O,,"inconclusive: 25.1 µM [inhibitor, single point]"
COc1ncc2nc(C)c(=O)n(CCc3ccccc3)c2n1,inactive: 61%,
Cc1nc2cnc(N3CCOCC3)nc2n(C)c1=O,,"inconclusive: 10 µM [inhibitor, single point]"
c1ccc(CN2CCN(CCN3CCn4c3nc3ccccc34)CC2)cc1,inactive: 3.83%,
Cc1cc(=O)oc2cc3c(cc12)OCCN3,inactive: -0.693%,
COC(=O)CC(=O)CSc1nc2c(cc1C#N)CCCCC2,,"inconclusive: 10 µM [inhibitor, single point]"
CCOC(=O)c1cccc2c1-c1ccccc1/C2=N/O,,"inconclusive: 25.1 µM [inhibitor, single point]"
O=C(NCC1CCCO1)c1sc(=S)n2c1[nH]c(=O)c1ccc(C(=O)N3CCCCC3)cc12 (centres undefined),,active: 2 µM
COc1ccccc1NC(=O)CSc1nc(O)cc(=O)n1-c1ccccc1OC,,"inconclusive: 10 µM [inhibitor, single point]"

SMILES,"activity change, negative = inhibition",Potency
CCOC(=O)c1c(-c2ccc(C)o2)csc1NC(=O)CSc1nncs1,inactive: 5.76%,
Cn1cc(-c2nc3cnc(Oc4ccccc4)nc3n(C)c2=O)c2ccccc21,,"inconclusive: 10 µM [inhibitor, single point]"
CN(C)S(=O)(=O)c1ccc(C(=O)Nc2nnc(Cc3ccccc3)s2)cc1,inactive: 0.63%,
NC(=O)c1sc2nc3c(c(-c4ccco4)c2c1N)CCC3,,"inconclusive: 10 µM [inhibitor, partial curve]"
Cc1cccc(CNc2ncnc3ccc(-c4cccc(NS(C)(=O)=O)c4)cc23)c1,,"inconclusive: 25.1 µM [inhibitor, single point]"
CCC1Oc2ccc(C)cc2N(Cc2cccc(C)c2)C1=O (centres undefined),,"inconclusive: 10 µM [inhibitor, single point]"
COc1ccccc1CNc1ccnc(-c2cccc(C#N)c2)n1,,"inconclusive: 25.1 µM [inhibitor, single point]"
COc1c(O)cc2oc3cc(O)c(CC=C(C)C)c(O)c3c(=O)c2c1CC=C(C)C,,active: 10 µM
Cc1cnc(CNc2ncncc2-c2cccc(C#N)c2)cn1,,"inconclusive: 12.6 µM [inhibitor, single point]"
CC(=O)C1=C(C)NC(=O)NC1c1ccccc1 (centres undefined),,"inconclusive: 5.01 µM [inhibitor, single point]"
O=C(Cc1cccs1)Nc1ccccc1C(=O)O,,"inconclusive: 12.6 µM [inhibitor, single point]"
COc1cc(S(=O)(=O)Nc2ccccc2C)ccc1Cl,inactive: -12.7%,
Cc1cc(C)c2c(CC(=O)NCc3ccco3)coc2c1,,"inconclusive: 5.01 µM [inhibitor, single point]"
CCOC(=O)CN1CC23C=CC(O2)C(C(=O)NC2CCCCC2)C3C1=O (centres undefined),inactive: 6.36%,
CC(C)(C)NS(=O)(=O)c1cccc(S(=O)(=O)c2cccc(S(=O)(=O)NC(C)(C)C)c2)c1,inactive: 16%,
COc1ccccc1CC(=O)NC1CC(C)(C)NC(C)(C)C1,,"inconclusive: 25.1 µM [inhibitor, single point]"
CCC1(C)Cc2ccccc2-c2nc3n(c(=O)c21)CC(C(=O)O)S3 (centres undefined),,"inconclusive: 25.1 µM [inhibitor, single point]"
COc1cccc(Cn2c(=O)c(-c3ccc(Cl)cc3)nc3cnc(N4CCNCC4)nc32)c1,,"inconclusive: 25.1 µM [inhibitor, single point]"
C=CCN1C(=O)C(O)(CC(=O)c2c(C)n[nH]c2C)c2cc(Br)ccc21 (centres undefined),,"inconclusive: 15.8 µM [inhibitor, single point]"
CCOC(=O)C1=C(c2ccccc2)Nc2ncnn2C1c1cc(OC)cc(OC)c1OC (centres undefined),,"inconclusive: 12.6 µM [inhibitor, single point]"
COC(=O)c1ccccc1NC(=O)c1cc2sccc2n1C,inactive: 23.9%,
Cc1cccc(Cn2c(N3CCN(c4ccccc4)CC3)nc3c2c(=O)n(C)c(=O)n3C)c1,,"inconclusive: 12.6 µM [inhibitor, single point]"
COc1ccc(-c2c(C#N)c(N)nc3c2CCCC3)cc1OC,,"inconclusive: 15.8 µM [inhibitor, single point]"
COc1ccc(-c2nc3cnc(N4CCN(C)CC4)nc3n(-c3ccc(OC)cc3)c2=O)cc1,,"inconclusive: 3.98 µM [inhibitor, full curve, poor fit]"
